Whole data set: some 4,500 sequences, median “median log2 fold change of GCK-ALFA target abundance (FLAG IP / Myc IP barcode read proportion)” near 0.078, cut for the lowest 2% near -0.6. The list shows a part of the results.
B1: GBRAP_74_6544 (protein)
chain: NAARAAALIETLETGSPEERRATLESLPLDFSTEDLKRLLLAVAREAQRAAAAGDEALLEAATDALVRLYDRLAGEPLSPETDAALVAALAAAVEAEKKR
B2: GBRAP_52_6347 (protein)
chain: MEERMRKLAEELVELVEAGRLDEARALAAEIVATLSDEEIEMLFKELARMAKEATPERAEAILEAAEILADEMIAAGRDEYLASGYLADVGKAVYENLQK
B3: GBRAP_160_4274 (protein)
chain: SEELEELIKEVKESKEEILKLVDEISPEEVKVFAVTELGSHLLEAIELGVVSDEEEDELGEIIDELEEELEKAKNASPEEIKKIIKEHYDKFIEILEKSK
B4: GBRAP_83_6964 (protein)
chain: MEKITVATTADHIDSAIDAAKDLATEEGYEVTVELIGSPEEVLASAEKVAKALKDIPNVEIRAAVENVRPEEAEELKKRLAEIGEKYGLKVEVDYDIVEP
B5: GBRAP_128_3235 (protein)
chain: MDPELKARVDELIEKIINGDVAEAAAATAELVALMGEVSLEEAEEIAERLIEALEKLTVEKLETVADTIRANRGTLDPEKANLALEVEIEALNRAEELEE
B6: GBRAP_52_6331 (protein)
chain: SHEEVEKMAEELYKAIVAGKEEEAKKLAEEMVETLSSEEILEAARIVAERVAKEGDEVKVRAAEVFEYLAELVEEKRGDERTAAEILGIYATTLYAAEQA
B7: GBRAP_160_4077 (protein)
chain: SEETEELKKEIKELFEEAVEWMKEEDYERRVAIARVMAGDVLMLVFEDPKMSDEQEEEVDETLDATVAEIEANPNISDEELAKLLKETAEKVIEIVEKAD
B8: GBRAP_11_2797 (protein)
chain: KKEKLEKAYELAEKLAELLKKLIEEGVDNEELLKKIEEALKELEKLAKEYLDKGLQKLVKIAKELFEEIKKNPEKALEYAELALATIRVLAGNIKLEIEE
B9: GBRAP_160_4227 (protein)
chain: DEVVERLVEIFRETFLEALELIEGETPEERQVILDVAVGEVILEVEEEEGATDEMVEVVDEKAEELAKELLAARDATPEEKRKLIEEKAEELRKELEKIK
B10: GBRAP_80_6849 (protein)
chain: AEEKLEKAKAELIELLPEAKETIEELVKLALELGVSLEDITELLEALAELAKKDKELAKELLEELLEEMKELKEEGDKEGARAVVRGYAGEALLLAEELE
B11: GBRAP_14_3855 (protein)
chain: KEALIKAVDETAADAKEFAAEVAPEHAAEIGALIDELAAKIKEKIKKENLNKDEVAELVDKAADELGAFMAEKGYMSADEIAAFKAHVINTALLALEEVE
B12: GBRAP_184_5109 (protein)
chain: KVLEREIEVKNEEELKEKLEEVIEEAKKEKATVIVIVNVENLTPEMAKTIMEAAKKIKDAGAPEVLVEIVSPNLTDEVIDTIVNTAKELGIDNVVLAREE
B13: GBRAP_78_6628 (protein)
chain: EVEELVDKARELVSEAATLATKQEGEEYIDILGELIDALSDLEEAEEEGFDLELLEEAREHLERAKELLKELNDEELEPILKKVEEALELLKEAIELLKK
B14: GBRAP_52_5956 (protein)
chain: MEEEMRALAERLVALVEAGDLEGARALFREFVAAHDEATLERFAEVWAEVARAAPPERHDAVWAAAELAAEVLEEEGRDERLAGLLLARVAAALYEKELA
B15: GBRAP_11_2615 (protein)
chain: KKEALEKAAKLAKKLAEVVEKLIEEGVDNEELRKEAEKLLKELTKLVKEELDEADQTDVEVMEELWKKAKEDPENAEEYAKQLLAAARVLEGNYLLDIEE
B16: GBRAP_11_2783 (protein)
chain: KKEKLKEIAELAEKLAEVIEKLLKEGVDNEELIKEAEELLEELKKLVEEHEDKSLQKLAEIAEELWKEFLEDKENAEKYAQELLAAVRVLLGEVLLLLEE
B17: GBRAP_35_5581 (protein)
chain: DDVEIILETLRDYADAAIEALEGEDLEEAIRMTRAFVRAAERAIEDLKDNKEALEEIERLLERVLKAAKKYRADNPEMQELIKRIEELAERAKKLAKEIE
B18: GBRAP_186_5393 (protein)
chain: EENEEEEDEILEELEERHDIVIVVYLDPEKSLEEKKAIMERDTEAAAALARETGKRVALVFRVVANEEELEELKKHVEELNERALAETGVEVRLIGFVKE
B19: GBRAP_35_5574 (protein)
chain: DFDEEVTEMLLATIDDLTLAVPDVDVETAVAMANSIVKAARALGEELKDKPELLERIADALGRLRDAVEANYADDPEAQATAAAIDAAIAELRARAAAAK
B20: GBRAP_137_3658 (protein)
chain: KKIKVEVKLEGNFAEVTIKAEDEETALEAADIAIEVARETGVAAAISVDLEEKEVYVDLIGEPEQLRAFVERLVERLSKKYDVDLTIEEDGKVTKERRKK
B21: GBRAP_52_6223 (protein)
chain: AAARAEALARRVLETVKTEGVEAAVALLEELARTESPELVAAVLEALVALLKSESYETAEAVLDALLAAEDALEAAGVPALTVEDAIAAAAAVAVELKKK
B22: GBRAP_35_5590 (protein)
chain: EIEQIILDTLEDYAEATIYAIKEESLETAIKMLEAFIRTARLAIKDLKDNLEALKKIEELIEKVIEEVKKYRSDDPKVQELLKELEELAKEAKEQAKKVE
B23: GBRAP_128_3510 (protein)
chain: SMEEAVAKAKELMEAIAKADEEEARKLTEELVALIDSVDDETAEAIADVVEEQLPKLSKEKLEVVADTLLELRPTVDPYKANLLAGIAVEALNKAEELEE
B24: GBRAP_35_5538 (protein)
chain: DSDTEEVEMIVNTMKDLVDALPDVSPEDQAKLAEHLIRLAKDLVKDKPKNLKLIKEAIENLERAIKIIEESDLPEETKEKLIKELEEVKKELEKILKENK
B25: GBRAP_39_5655 (protein)
chain: EEEEENELRFEYLVALAEKERVEKNISDEELIERGKKILKEMAKEHPEIKELVEKALELMEKGDEETKLAIVGIALRYERGEPIEEIKEDLESFLKYLES
B26: GBRAP_78_6738 (protein)
chain: EIEEEIDEALEHLDRASKLAKKLDPETSNELLDLLVDAMSYLLLSEENGPNLEELKEALKHAEKALELAKKIDTEEAKELAEELEKAIEHLKKAIELLEK
B27: GBRAP_160_4115 (protein)
chain: MEEKVKTAEDSAKDLEETIKIIEDLSPEEAGILAKVTLGQVLLDASELDEEFEEIEELADAAIEEIEKTAKEDPEKLKEVSLKQLKKLLEALKKKAKELK
B28: GBRAP_14_3817 (protein)
chain: MEELKKKIKEILDDLYEELVEDIGLDEEKVKKLIDKALEEIFKALDDPEGSEEKIKEIMEKLKKEIEKLAAELGADEAAAARALVTDAEYEIDEAIEEAK
B29: GBRAP_128_3248 (protein)
chain: PNPEVVAYAEKTVEELEKADKETARKIAKDFAEYLKTITDEEAETAIDVVEKNLSKLTVEHLEILADVLREEMPKYTPEKANLVAGLEVEALNEAEEKEE

These binders were tested against GABARAP, O95166 (assay: median log2 fold change of GCK-ALFA target abundance (FLAG IP / Myc IP barcode read proportion) (log2 ratio); each designed protein is fused to an ALFA-tag nanobody in HEK293 cells to bring the named protein to FLAG-tagged glucokinase (GCK); Myc marks an untargeted standard; higher = target protein stabilised (more abundant)). Details: target protein: 3xFLAG-MCP-GCK-ALFA reporter; HEK293 landing pad (RPLP).
Chain of GABARAP, O95166 (O95166 whole entry, the tested form may be a part): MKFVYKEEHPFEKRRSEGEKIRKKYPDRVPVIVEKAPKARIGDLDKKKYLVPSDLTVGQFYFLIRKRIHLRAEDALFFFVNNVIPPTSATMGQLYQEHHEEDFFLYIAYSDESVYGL
How it was run: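 The readout is target abundance, the per-binder median log2 ratio of FLAG to Myc barcode read proportions. It came from HEK293 landing-pad cells carrying a recombined ALFA-nanobody-fused binder library, induced with 2 μg mL^−1 doxycycline and transfected with a plasmid for a FLAG-tagged target and a Myc-tagged standard. After 48 h, lysates were immunoprecipitated with anti-FLAG and anti-Myc, and circular RNA barcodes were reverse transcribed, amplified and sequenced. Each barcode needed a proportion of at least 10^−7 in both replicates and each binder at least 3 barcodes per replicate, a pseudocount of 10^−6 was added, and the replicates were pooled.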
With B1 the “median log2 fold change” value was -0.051. B2 was tested, and the “median log2 fold change” value was 0.146. B3 was tested, and the “median log2 fold change” value was 0.0705. With B4 the “median log2 fold change” value was 0.147. In the case of B5, the “median log2 fold change” value is reported as -0.0601. For B6, the “median log2 fold change” value was 0.372. In the case of B7, the “median log2 fold change” value is reported as -0.215. B8 was tested, and the “median log2 fold change” value was -0.0559. B9 was tested, and the “median log2 fold change” value was -0.166. For B10, the “median log2 fold change” value was -0.257. B11 was tested, and the “median log2 fold change” value was 0.255. In the case of B12, the “median log2 fold change” value is reported as 0.179. For B13, the “median log2 fold change” value was -0.0139. In the case of B14, the “median log2 fold change” value is reported as 0.0382. For B15, the “median log2 fold change” value was 0.283. For B16, the “median log2 fold change” value was 0.241. For B17, the “median log2 fold change” value was 0.301. For B18, the “median log2 fold change” value was -0.0103. For B19, the “median log2 fold change” value was -0.468. B20 was tested, and the “median log2 fold change” value was -0.251. For B21, the “median log2 fold change” value was 0.0932. In the case of B22, the “median log2 fold change” value is reported as 0.0261. In the case of B23, the “median log2 fold change” value is reported as 0.00598. In the case of B24, the “median log2 fold change” value is reported as 0.273. B25 was tested, and the “median log2 fold change” value was 0.24. In the case of B26, the “median log2 fold change” value is reported as 0.14. With B27 the “median log2 fold change” value was 0.192. In the case of B28, the “median log2 fold change” value is reported as -0.057. B29 was tested, and the “median log2 fold change” value was 0.296.

— the supplement of paper PMC12632987
